PubChem BioAssay AID504332 (National Center for Advancing Translational Sciences (NCATS), 2011)
Hit rate of the full screen: of about 350,000 compounds, about 31,000 (8.9%) were called active. Inconclusive means that the source gave no clear call. Such entries were picked first, then a sample of the others. The call rests on the fitted dose curve; in most records, active means well fitted inhibition curve with a large enough effect; inconclusive means small, poorly fitted or top-dose-only effect; inactive means no such curve, though single readings can be large or run the other way. A potency beside an inconclusive call is a rough fit, not a confirmed value.

These compounds were tested against Histone-lysine N-methyltransferase EHMT2 (Homo sapiens) (UniProt Q96KQ7) (assay: qHTS Assay for Inhibitors of Histone Lysine Methyltransferase G9a). Details: G9a H3K9 monomethylation, AlphaScreen, 2 h; activity, negative = inhibition: at 59 µM (top of the series) unless noted.
How it was run: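 Compounds were preincubated with 20 nM G9a for 15 min, after which biotinylated H3K9 peptide (500 nM) and SAM (20 uM) started a 2 h room-temperature reaction. Monomethylated product was quantified by antibody-based AlphaScreen chemiluminescence.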
Further: nearly all actives have a fitted effect of over 75% in size.
On the % scale 0 is the no-effect control and ±100 the full control effect; potency means the concentration at half of the fitted maximal effect; tags describe the fitted curve by direction and shape.

Sequence of UniProt Q96KQ7 (Q96KQ7 whole entry, looked up): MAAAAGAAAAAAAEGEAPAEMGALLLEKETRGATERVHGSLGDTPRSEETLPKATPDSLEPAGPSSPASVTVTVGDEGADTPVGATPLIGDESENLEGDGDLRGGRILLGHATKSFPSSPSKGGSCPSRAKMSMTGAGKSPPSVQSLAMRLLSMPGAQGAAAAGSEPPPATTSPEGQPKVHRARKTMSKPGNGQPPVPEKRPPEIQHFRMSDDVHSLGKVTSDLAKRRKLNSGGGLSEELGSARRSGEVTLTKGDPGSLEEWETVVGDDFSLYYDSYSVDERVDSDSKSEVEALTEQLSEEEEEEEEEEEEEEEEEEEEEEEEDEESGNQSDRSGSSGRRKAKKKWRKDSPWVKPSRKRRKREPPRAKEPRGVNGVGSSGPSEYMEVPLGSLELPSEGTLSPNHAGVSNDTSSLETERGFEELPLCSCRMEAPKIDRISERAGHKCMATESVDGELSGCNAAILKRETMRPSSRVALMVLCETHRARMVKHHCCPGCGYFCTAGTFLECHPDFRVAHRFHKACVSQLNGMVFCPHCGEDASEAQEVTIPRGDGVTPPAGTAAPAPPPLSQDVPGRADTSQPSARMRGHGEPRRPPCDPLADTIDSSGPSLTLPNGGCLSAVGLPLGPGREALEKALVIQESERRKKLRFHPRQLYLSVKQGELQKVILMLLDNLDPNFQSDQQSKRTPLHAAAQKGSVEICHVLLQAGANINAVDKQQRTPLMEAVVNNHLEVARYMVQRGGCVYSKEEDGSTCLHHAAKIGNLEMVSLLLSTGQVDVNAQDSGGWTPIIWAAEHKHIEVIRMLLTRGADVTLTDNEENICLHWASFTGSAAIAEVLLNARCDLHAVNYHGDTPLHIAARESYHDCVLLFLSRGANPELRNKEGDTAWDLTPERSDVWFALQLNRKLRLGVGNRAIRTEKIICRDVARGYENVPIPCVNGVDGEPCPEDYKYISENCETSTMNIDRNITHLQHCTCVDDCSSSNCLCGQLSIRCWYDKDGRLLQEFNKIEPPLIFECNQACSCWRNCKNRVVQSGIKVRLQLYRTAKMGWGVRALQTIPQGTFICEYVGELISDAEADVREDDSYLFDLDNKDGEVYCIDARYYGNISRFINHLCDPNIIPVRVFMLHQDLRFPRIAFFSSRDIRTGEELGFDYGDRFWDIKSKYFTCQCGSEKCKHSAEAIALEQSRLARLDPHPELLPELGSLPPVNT

| SMILES | activity, negative = inhibition | Potency |
| --- | --- | --- |
| CCc1cccc(C)c1NC(=O)Cn1c(=O)cc(C(F)(F)F)c2c(C)nn(C)c21 | inactive: 4.9% | – |
| CC(C)CCNC(=O)CC1Nc2c3ccccc3nc(=S)n2C1=O (stereo not given) | – | active: 56.2 µM |
| O=C1/C(=C\c2cccc(O)c2O)SC(=S)N1Cc1ccccc1 | – | active: 4.47 µM |
| O=S(=O)(c1cccs1)N1CCN(C/C=C/c2ccccc2)CC1 | inactive: -1.67% [at 12.7 µM] | – |
| COC(=O)CSc1nnc2n1C(C)(C)Cc1ccccc1-2 | inactive: 21.4% [at 102 µM] | – |
| CCOC(=O)c1cc(C(=O)OCC)cc(-n2c(C)cc(C(=O)CN3CCOCC3)c2C)c1 | – | inconclusive: 56.2 µM [inhibitor, partial curve, poor fit] |
| O=C(CSc1nnc(Cc2cc(=O)[nH]c(=O)[nH]2)n1-c1ccccc1)N1CCCC1 | – | inconclusive: 14.1 µM [inhibitor, partial curve, poor fit] |
| O=S(=O)(Nc1cc(Cl)ccc1N1CCCCC1)c1cccs1 | inconclusive: -72.1% [inhibitor] | – |
| CCOc1ccc(C2C(=O)N(C3CCCCCC3)CC(=O)N2CCc2ccccc2)cc1OC (stereo not given) | – | inconclusive: 8.91 µM [inhibitor, single point] |
| Cc1cccc(NC(=O)c2cccs2)n1 | – | inconclusive: 35.5 µM [inhibitor, single point] |
| CN1CCN(c2ccc(NC(=O)COc3cccc4ccccc34)cc2)CC1 | – | inconclusive: 70.8 µM [inhibitor, partial curve, poor fit] |
| C=CCSC1=Nc2cc(OC)c(OC)cc2C2=NC(=O)CN12 | – | active: 50.1 µM |
| O=C(Nc1c(-c2ccccc2)nc2ccccn12)c1ccc(Br)cc1 | inactive: -3.02% | – |
| Cn1cc(Br)c(C(=O)NC(=S)N2CCN(c3ccccn3)CC2)n1 | – | active: 39.8 µM |
| Cc1ccc(N2C(=O)C3C(c4ccccc4)N4CCCN4C3(C)C2=O)cc1 (stereo not given) | – | active: 7.94 µM |
| COc1cc(SC#N)ccc1N=Cc1c(C)[nH]n(-c2ccc(C)cc2)c1=O | – | inconclusive: 14.1 µM [inhibitor, single point] |
| CCOc1ccccc1Nc1ncccc1C(=O)O | – | inconclusive: 89.1 µM [inhibitor, single point] |
| O=C(NCCOc1ccccc1)c1cncc(Br)c1 | – | inconclusive: 89.1 µM [inhibitor, single point] |
| COc1ccc(S(=O)(=O)c2c(O)c3ccc(C(=O)Nc4cccc(F)c4)cc3[nH]c2=O)cc1 | inconclusive: -59.6% [inhibitor] | – |
| CCN(CC(=O)Nc1cc(C)on1)CC(=O)Nc1ccccc1C(F)(F)F | – | inconclusive: 1.78 µM [inhibitor, partial curve, poor fit] |
| Cc1cc2ccccn2c1C(=O)c1nc(NCc2ccccc2)ncc1Cl | inactive: -36.7% [at 102 µM] | – |
| Cc1cc(NC(=O)CCOc2ccccc2)no1 | – | inconclusive: 50.1 µM [inhibitor, partial curve] |
| COC(=O)/C=c1/s/c(=C(\C#N)C(=O)NCc2ccco2)n(-c2ccc(C)cc2)c1=O | – | inconclusive: 89.1 µM [inhibitor, single point] |

| SMILES | activity, negative = inhibition | Potency |
| --- | --- | --- |
| Cc1csc(SCC(=O)O)n1 | – | inconclusive: 89.1 µM [inhibitor, partial curve, poor fit] |
| COc1cc(NC(=S)Nc2ccc(N(C)C(C)=O)cc2)cc(OC)c1 | – | inconclusive: 28.2 µM [inhibitor, full curve, poor fit] |
| N#C/C(=C/c1ccc(-c2ccc(C(=O)O)c(Cl)c2)o1)C(=O)NCC1CCCO1 (stereo not given) | – | inconclusive: 12.6 µM [inhibitor, partial curve, poor fit] |
| COc1ccc(CCc2nnc(CCC(=O)NCCc3ncccc3C)o2)cc1 | inactive: -5.89% [at 12.7 µM] | – |
| COc1cc2c(cc1OC)C1(CCCC1)CNC2c1cccc([N+](=O)[O-])c1 (stereo not given) | – | inconclusive: 35.5 µM [inhibitor, partial curve] |
| COc1ccc(N2CCN(S(=O)(=O)CCNC(=O)c3ccc(C(F)(F)F)cc3)CC2)cc1 | inactive: 10.2% | – |
| CC(NCc1ccc(N(C)C)cc1)C1CC2CCC1C2 (stereo not given) | – | active: 50.1 µM |
| CC1CN(C(=O)CN2C(=O)c3ccccc3S2(=O)=O)CC(C)O1 (stereo not given) | – | inconclusive: 44.7 µM [inhibitor, partial curve] |
| N#Cc1c(Cl)nsc1NCCN1CCOCC1 | inactive: -7.58% [at 102 µM] | – |
| COc1ccc(C2=NOC(C(=O)Nc3c(C)n(C)n(-c4ccccc4)c3=O)C2)cc1 (stereo not given) | – | inconclusive: 89.1 µM [inhibitor, single point] |
| COc1cc(/C=C2\SC(=S)N(CCC(=O)Nc3ccccc3)C2=O)cc(OC)c1OC | inactive: -24.1% [at 102 µM] | – |
| COc1ccc(CNC(=O)Cn2ncn3nc(-c4cccs4)cc3c2=O)cc1 | – | inconclusive: 1.78 µM [inhibitor, partial curve, poor fit] |
| CCn1ncc([C@@H]2C[C@H]3CN(Cc4cccc(Cl)c4)C(=O)[C@]34CCCN24)c1C | – | inconclusive: 89.1 µM [inhibitor, partial curve, poor fit] |
| O=c1c2ccccc2[nH]c(=S)n1CCc1ccccc1 | inactive: 17.4% | – |
| COc1cc(NS(=O)(=O)c2ccc(NC(=O)COc3ccccc3C)cc2)nc(OC)n1 | – | inconclusive: 89.1 µM [inhibitor, single point] |
| CN(C=C1C(=O)CC(C)(C)CC1=O)CCN1CCNCC1 | – | inconclusive: 7.94 µM [inhibitor, single point] |
| Cc1ccc(-c2nc(S(=O)(=O)c3ccc(C)cc3)c(N3CCN(c4ccccc4)CC3)o2)cc1 | inactive: -15.8% | – |
| CCc1[nH]c(=O)c(C#N)c2c1CSC(C)(C)C2 | – | inconclusive: 35.5 µM [inhibitor, single point] |
| CCOc1c2ccc(C(=O)NCCCCc3ccccc3)cc2nn1CC | – | inconclusive: 8.91 µM [inhibitor, full curve, poor fit] |
| O=C(Nc1ccc(N2CCN(C(=O)c3ccc(Cl)cc3)CC2)cc1)c1ccc(Br)o1 | – | inconclusive: 28.2 µM [inhibitor, single point] |
| Cn1cccc1/C=C1\CCc2ccccc2C1=O | – | inconclusive: 39.8 µM [inhibitor, single point] |
| COc1ccc(CN2COc3ccc4c(-c5ccc(OC)cc5)cc(=O)oc4c3C2)cc1 | inactive: 11% | – |
